Reference: patent US20030091564A1 (published 2003)

What was measured:
[1] = biological target: T1, dimeric murine CD40-L (murine, UniProt P27548 47-260); assay: BIAcore biosensor, CD40/Fc captured by goat anti-human IgG1 Fc; first experiment; K1 (site 1)
T1 construct: the whole entry is named; also called Murine Dimer
T1 sequence: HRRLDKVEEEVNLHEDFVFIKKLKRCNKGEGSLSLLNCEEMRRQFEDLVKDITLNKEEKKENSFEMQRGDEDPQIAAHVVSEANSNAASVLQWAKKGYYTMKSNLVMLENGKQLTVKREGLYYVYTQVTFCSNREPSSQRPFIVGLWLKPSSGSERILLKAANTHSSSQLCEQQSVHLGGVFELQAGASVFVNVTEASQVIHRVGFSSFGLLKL
Procedure: (§1) This example illustrates the binding affinities of several different CD40-L constructs. Affinity experiments were conducted by biospecific interaction analysis (BIA) using a biosensor, an instrument that combines a biological recognition mechanism with a sensing device or transducer. An exemplary biosensor is BIAcore™, from Pharmacia Biosensor AB (Uppsala, Sweden; see Fägerstam L. G., Techniques in Protein Chemistry II, ed. J. J. Villafranca, Acad. Press, NY, 1991). BIAcore™ uses the optical phenomenon surface plasmon resonance (Kretschmann and Raether, Z. Naturforschung, Teil. A 23:2135, 1968) to monitor the interaction of two biological molecules.
(§2) The biosensor chips were coated with goat anti-human IgG₁ Fc, which was used to bind CD40/Fc (prepared as described in Example 1) to the chip. The different constructs of CD40-L were then added at increasing concentrations; the chip was regenerated between the different constructs by the addition of sodium hydroxide. Two separate experiments were performed. […] The resultant data were analyzed to determine the affinity and association rate constants of the different CD40-L constructs. […]

[2] = biological target: T1, dimeric murine CD40-L; assay: BIAcore biosensor, CD40/Fc captured by goat anti-human IgG1 Fc; first experiment; K2 (site 2)
Procedure: as §1, §2

B1: CD40/Fc fusion protein (Fc fusion, not shown: a dimerising Fc or GST)
chain: not shown
notes: extracellular domain; also called C40/Fc; CD40Fc recombinant receptor
- Ka [1]: 7e+09 M⁻¹
- Ka [2]: 4e+07 M⁻¹
